From PubChem BioAssay AID624170 (National Center for Advancing Translational Sciences (NCATS), 2012)
Hit rate of the full screen: of about 410,000 compounds, about 850 (0.21%) were called active. This list was built around the results that the source calls inconclusive (neither active nor inactive); the mix of calls is not that of the screen. Calls come from the whole dose curve; as a rule, active = well fitted inhibition curve with a large enough effect; inconclusive = small, poorly fitted or top-dose-only effect, or another doubt; inactive = no such curve, though single readings can be large or run the other way. No potency is given beside an inconclusive call; the fits are too rough. Some structures have more than one record in an assay (separate samples or runs), and their calls can disagree.

Biological target: Glutaminase kidney isoform, mitochondrial (Homo sapiens) (UniProt O94925)
UniProt O94925, sequence (O94925 whole entry, looked up, canonical isoform): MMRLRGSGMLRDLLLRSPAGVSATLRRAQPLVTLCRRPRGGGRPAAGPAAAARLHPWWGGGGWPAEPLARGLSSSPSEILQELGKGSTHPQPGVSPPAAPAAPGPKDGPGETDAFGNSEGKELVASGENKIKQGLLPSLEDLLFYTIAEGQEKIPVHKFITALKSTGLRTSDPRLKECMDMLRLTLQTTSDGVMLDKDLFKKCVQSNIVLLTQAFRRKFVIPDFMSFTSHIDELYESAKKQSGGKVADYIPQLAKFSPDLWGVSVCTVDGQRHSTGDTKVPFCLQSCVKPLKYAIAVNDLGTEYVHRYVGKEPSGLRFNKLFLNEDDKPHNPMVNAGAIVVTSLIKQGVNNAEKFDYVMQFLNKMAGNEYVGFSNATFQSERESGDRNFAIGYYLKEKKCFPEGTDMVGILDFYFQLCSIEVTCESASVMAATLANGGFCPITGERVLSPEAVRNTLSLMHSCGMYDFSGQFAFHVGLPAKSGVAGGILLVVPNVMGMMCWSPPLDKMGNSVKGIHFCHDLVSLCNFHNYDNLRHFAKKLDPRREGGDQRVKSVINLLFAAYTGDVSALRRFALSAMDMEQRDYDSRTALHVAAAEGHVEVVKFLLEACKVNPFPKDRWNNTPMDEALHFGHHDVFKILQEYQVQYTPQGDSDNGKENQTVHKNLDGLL
Test: qHTS for Inhibitors of Glutaminase (GLS)
Settings: GLS enzymatic activity, qHTS titration; series mostly up to 45.5 µM; activity change, negative = inhibition: at the top concentration
Summary of the method: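 Enzyme dispensed in phosphate buffer (45 mM, pH 8.2, 0.02% Tween-20), compounds pinned in, then 1 mM L-glutamine solution and the glutamate oxidase–HRP–Amplex Red mix added; fluorescence read immediately and again after 30 min at room temperature.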
% is set by controls: 0 for no effect and ±100 for the full control effect; potency is the fitted concentration of half-maximal effect; tags give direction and shape of the fitted curve.

Row | Structure (SMILES) | activity change, negative = inhibition | Potency
1 | Cc1ccc(-c2cc(C(=O)N/N=C/C(Br)=C/c3ccccc3)n[nH]2)o1 | inactive: 6.7% | 
2 | O=C(Nc1cccs1)Nc1ccc(Br)cc1F |  | inconclusive [inhibitor, partial curve, poor fit]
3 | O=C(c1cc2ccccc2oc1=O)N(Cc1ccco1)Cc1cccs1 |  | inconclusive [inhibitor, single point]
4 | O=C(O)c1ccc(Cn2ccc3ccccc32)o1 |  | inconclusive [inhibitor, single point]
5 | CCN(CC)C(=O)COC(=O)C1CCN(S(=O)(=O)c2ccc3c(c2)OCCO3)CC1 | inactive: 0.86% | 
6 | COC(=O)C1=C(C)Nc2c(c(=O)n(C)c(=O)n2C)C1c1ccc(C)cc1 (stereo not given) |  | inconclusive [inhibitor, partial curve]
7 | CN(C(=O)CCc1ccccc1F)C1CCCN(Cc2ccccc2F)C1 (stereo not given) |  | inconclusive [inhibitor, single point]
8 | CSc1nsc2nc(=O)c(/C=C3\C=Nc4ccccc43)c(N)n12 |  | inconclusive [inhibitor, partial curve, poor fit]
9 | Cc1c(C(=O)Nc2nnc(C(F)(F)F)s2)oc2ccccc12 |  | inconclusive [inhibitor, single point]
10 | O=C(O)C1=NN(c2cc(Cl)c(S(=O)(=O)O)cc2Cl)C(=O)C1 |  | active: 1.12 µM
11 | Cc1nn(C(=O)c2cccnc2)c(C)c1C |  | inconclusive [inhibitor, single point]
12 | CCCc1cc(=O)[nH]c(SCC(=O)N2CCC(C)CC2)n1 |  | inconclusive [inhibitor, single point]
13 | COc1cc(C(c2c(C)[nH][nH]c2=O)c2c(C)[nH][nH]c2=O)ccc1OC(=O)c1cccc([N+](=O)[O-])c1 | inactive: 36.4% | 
14 | Nc1ccc(NC(=O)NC2CCCCC2)cc1 |  | inconclusive [inhibitor, single point]
15 | CCOc1ccc(/C=N/NC(=O)NC23CC4CC(CC(C4)C2)C3)cc1O |  | inconclusive [inhibitor, single point]
16 | C(=N\Nc1nc2ccccc2s1)/c1ccc2c(c1)OCO2 |  | inconclusive [inhibitor, partial curve, poor fit]
17 | CN(Cc1ccccc1)S(=O)(=O)c1ccc(NC(=O)c2cc(=O)c3ccccc3o2)cc1 | inactive: -2.84% | 
18 | CCCc1ccc(OCc2ccc(C(=O)O)o2)c(OC)c1 | inactive: 3.93% | 
19 | COc1ccc(NC(=O)C2=CC(c3ccc(C)cc3)=NS(=O)(=O)N2C)cc1 | inactive: -0.834% | 
20 | Cn1ccsc1=NC(=O)c1ccc(S(C)(=O)=O)c([N+](=O)[O-])c1 | inactive: 3.89% | 
21 | COc1ccccc1NC(=S)N(Cc1ccccc1)Cc1cccs1 | inactive: -8.2% | 
22 | COc1ccc(Br)cc1[C@@H]1Nc2ccc(C(=O)O)cc2[C@@H]2C=CC[C@@H]21 |  | inconclusive [inhibitor, single point]
23 | CCC1Sc2ccc(S(=O)(=O)N3CCN(c4ccccc4)CC3)cc2NC1=O (stereo not given) |  | inconclusive [inhibitor, single point]
24 | CC(C(=O)Nc1ccc(OC(F)(F)F)cc1)N1Cc2ccccc2C1=O (stereo not given) |  | inconclusive [inhibitor, single point]

Row | Structure (SMILES) | activity change, negative = inhibition | Potency
25 | CC1C(=O)C(C)C(c2ccc([N+](=O)[O-])cc2)NC1c1ccc([N+](=O)[O-])cc1 (stereo not given) | inactive: -7.26% | 
26 | COCCNc1c(-c2cc3ccc(C)c(C)c3[nH]c2=O)nc2ccccn12 |  | inconclusive [inhibitor, partial curve]
27 | CCOC(=O)C(=COC(=O)c1ccccc1)NC(=O)Cc1ccccc1 |  | inconclusive [inhibitor, partial curve]
28 | COc1ccc(-c2ccc(/C=C(\NC(=O)c3ccccc3)C(=O)N3CCOCC3)o2)cc1 |  | inconclusive [inhibitor, partial curve, poor fit]
29 | Cc1coc2c1c(C)cc1oc(=O)c(Cc3ccccc3)c(C)c12 | inactive: 0.0143% | 
30 | O=C1NC[C@H](CCCCN2CCN(CCc3ccccc3)C(=O)C2=O)N(CCC2CCCCC2)C1=O |  | inconclusive [inhibitor, single point]
31 | COc1cc2c(cc1OC)C(c1cccs1)N(C(=O)c1cccc(S(=O)(=O)N(C)C)c1)CC2 (stereo not given) | inactive: 4.02% | 
32 | CCCN1CCc2c(sc(NC(=O)c3ccc(S(=O)(=O)N(C)c4ccccc4)cc3)c2C(N)=O)C1 |  | inconclusive [inhibitor, single point]
33 | CC(C)N1CN=C(Nc2nc3ccccc3o2)NC1 |  | inconclusive [inhibitor, single point]
34 | CCOC(=O)c1cnn(-c2ccc(C(=O)Nc3ccc(C(C)=O)cc3)cc2)c1N | inactive: -16.6% | 
35 | CC1(Cc2ccccc2Cl)C(=O)Nc2c(Cl)ccc(Cl)c21 (stereo not given) |  | inconclusive [inhibitor, single point]
36 | O=c1nc2c(O)cccn2c2c1c(=O)[nH]c1ccccc12 |  | inconclusive [inhibitor, single point]
37 | CCn1nc(NC(=O)C(C)(C)C)c2cc3cccc(C)c3nc21 | inactive: -2.02% | 
38 | Cc1ccc(C(=O)N/C(=C/c2ccco2)C(=O)Nc2cccc(C(=O)O)c2)cc1 | inactive: 1.33% | 
39 | O=C(NNC(=S)NCC1CCCO1)c1cccc(S(=O)(=O)N2CCOCC2)c1 (stereo not given) |  | inconclusive [inhibitor, partial curve]
40 | N[C@@H](C(=O)N[C@@H]1C(=O)N2C(C(=O)O)=C(Cl)CS[C@H]12)c1ccccc1 |  | active: 11.2 µM
41 | COc1ccc2c(C)cc3n[nH]c(=S)n3c2c1 |  | inconclusive [inhibitor, partial curve]
42 | N/C(=N\OC(=O)CCCc1ccccc1)c1ccccc1Cl |  | inconclusive [inhibitor, partial curve, poor fit]
43 | Cc1cccc(NC(=O)Cc2ccc(F)cc2)c1 | inactive: 2.43% | 
44 | O=C1OC(c2ccccc2)=C/C1=C/N1CCOCC1 | inactive: 8.61% | 
45 | CCc1nn2cc(-c3ccccc3)nc2s1 |  | inconclusive [inhibitor, partial curve]
46 | COc1cccc(NC(=O)CC2Nc3cc(C)c(C)cc3NC2=O)c1 (stereo not given) |  | inconclusive [inhibitor, single point]
47 | COc1ccc(OC)c(S(=O)(=O)Nc2cccc(-c3ccc(N4CCCCC4)nn3)c2)c1 | inactive: -3.11% | 
48 | Cc1ccsc1C(C(=O)NCc1ccccc1)N(C(=O)c1csnn1)c1ccccc1 (stereo not given) |  | inconclusive [inhibitor, single point]

Row | Structure (SMILES) | activity change, negative = inhibition | Potency
49 | CC1(C)CC2CC(C)(CN2C(=O)c2cc(-c3ccc(F)cc3)on2)C1 (stereo not given) |  | inconclusive [inhibitor, single point]
50 | O=C(CCc1ccc(O)c(O)c1)NNC(=S)NCCc1ccccc1 |  | inconclusive [inhibitor, single point]
51 | CCOc1ccccc1C1C(C#N)=C(N)N(N(C)C)C2=C1C(=O)CCC2 (stereo not given) |  | inconclusive [inhibitor, single point]
52 | COc1ccc2c(c1)NC(C)(C)C=C2C |  | inconclusive [inhibitor, partial curve]
53 | COc1cc(C2C(C(=O)c3ccco3)=C(O)C(=O)N2CC2CCCO2)ccc1O (stereo not given) |  | inconclusive [inhibitor, single point]
54 | Cc1cc(-c2csc(NCc3ccccc3)n2)c(C)n1C |  | inconclusive [inhibitor, single point]
55 | CC(=O)SC(C[N+](=O)[O-])c1cn(C(C)=O)c2ccccc12 (stereo not given) |  | inconclusive [inhibitor, single point]
56 | O=C(CNC(=O)OCc1ccccc1)NCC(=O)Oc1ccc([N+](=O)[O-])cc1 | inactive: 3.37% | 
57 | COCCCn1c(C(=O)Nc2ccc3c(c2)OCO3)cc2c(=O)n3ccccc3nc21 |  | inconclusive [inhibitor, single point]
58 | CC(C)C(=O)N1CCN(CCN2C(=O)c3cccc4cccc(c34)C2=O)CC1 | inactive: 1.2% | 
59 | O=C(CSc1nc2nc3c(cc2c(=O)n1-c1ccccc1)CCCC3)Nc1cccc2ccccc12 |  | inconclusive [inhibitor, single point]
60 | Cc1cc(NC(=O)CN2CCC(C)CC2)nc2c1c(=O)oc1ccccc12 | inactive: -5.83% | 
61 | COc1ccc(CCNC(=O)c2c(C)oc3ncn(C)c(=O)c23)c(OC)c1 | inactive: -0.0487% | 
62 | CC(CS(=O)(=O)c1ccc2c(c1)NC(=O)CS2)C(=O)NCc1ccccc1Cl (stereo not given) |  | active: 11.2 µM
63 | O=C(NCC(c1ccco1)S(=O)(=O)c1cccs1)c1ccc(Cl)cc1 (stereo not given) | inactive: 0.93% | 
64 | CCOC(=O)Cc1csc(NC(=O)NC2(C(F)(F)F)Oc3ccccc3O2)n1 |  | inconclusive [inhibitor, single point]
65 | NS(=O)(=O)c1ccc(N/N=C/c2ccccc2Br)cc1 |  | inconclusive [inhibitor, partial curve]
66 | CC1(C)CC(NC(=S)Nc2ccc(S(N)(=O)=O)cc2)CC(C)(C)N1 | inactive: -3.2% | 
67 | O=C(O)CSc1nc(-c2ccccc2)cc(=O)[nH]1 |  | inconclusive [inhibitor, single point]
68 | COc1ccc(C(=O)N(C)[C@H]2C[C@H]3c4[nH]c5ccccc5c4CCN3C[C@H]2[C@H](C)O)cc1 |  | inconclusive [inhibitor, single point]
69 | CCOc1cc(/C=C2\N=C(SCC)SC2=O)cc([N+](=O)[O-])c1OC(C)=O |  | inconclusive [inhibitor, single point]
70 | CCCc1cc(C(=O)N2CCCC(Cc3cccc(Cl)c3)(C(=O)OCC)C2)n(C)n1 (stereo not given) | inactive: -4.46% | 
